{
  "source": "paper PMC4336329",
  "about": "(PLoS ONE, 2015)",
  "note": "The campaign covered roughly 310,000 compounds. About 2,200 (0.71%) showed an effect of 50% or more. Effects have a minus sign here. This is one part of the list.",
  "data": [
    {"biological_target": "human ether-à-go-go-related gene (hERG) potassium channel (human, UniProt Q12809)", "sequence (Q12809 whole entry, looked up)": "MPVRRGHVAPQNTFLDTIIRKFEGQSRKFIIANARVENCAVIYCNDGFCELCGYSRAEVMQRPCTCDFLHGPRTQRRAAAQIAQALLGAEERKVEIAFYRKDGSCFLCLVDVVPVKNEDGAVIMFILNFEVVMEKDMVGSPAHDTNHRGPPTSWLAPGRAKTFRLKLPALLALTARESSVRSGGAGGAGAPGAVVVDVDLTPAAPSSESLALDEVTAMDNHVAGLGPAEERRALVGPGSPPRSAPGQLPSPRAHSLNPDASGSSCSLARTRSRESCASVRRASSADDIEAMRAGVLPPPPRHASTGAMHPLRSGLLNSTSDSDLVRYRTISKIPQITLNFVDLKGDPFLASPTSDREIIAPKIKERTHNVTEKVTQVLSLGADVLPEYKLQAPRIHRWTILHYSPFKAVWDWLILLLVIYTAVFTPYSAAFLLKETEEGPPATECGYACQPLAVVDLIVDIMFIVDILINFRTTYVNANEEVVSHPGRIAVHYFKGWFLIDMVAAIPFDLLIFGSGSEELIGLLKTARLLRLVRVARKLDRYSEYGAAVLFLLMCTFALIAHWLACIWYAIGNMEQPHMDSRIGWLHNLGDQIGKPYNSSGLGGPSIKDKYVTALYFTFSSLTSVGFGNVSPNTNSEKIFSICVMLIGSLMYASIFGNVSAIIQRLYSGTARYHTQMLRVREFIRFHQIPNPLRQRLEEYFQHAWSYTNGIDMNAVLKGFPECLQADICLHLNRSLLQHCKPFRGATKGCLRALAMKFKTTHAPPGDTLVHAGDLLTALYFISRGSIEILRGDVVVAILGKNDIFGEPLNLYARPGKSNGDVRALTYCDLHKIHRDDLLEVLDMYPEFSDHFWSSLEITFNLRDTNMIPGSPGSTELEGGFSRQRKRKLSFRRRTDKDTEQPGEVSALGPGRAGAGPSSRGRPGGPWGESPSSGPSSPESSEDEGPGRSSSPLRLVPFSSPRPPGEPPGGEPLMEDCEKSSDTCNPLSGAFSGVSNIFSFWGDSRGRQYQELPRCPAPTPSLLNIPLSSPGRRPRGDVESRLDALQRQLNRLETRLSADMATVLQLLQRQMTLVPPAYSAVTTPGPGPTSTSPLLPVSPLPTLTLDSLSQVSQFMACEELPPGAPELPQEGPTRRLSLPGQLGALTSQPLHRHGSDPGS", "assay": "primary screen, population patch clamp on CHO cells stably expressing hERG", "units": {"hERG current change (%, negative = inhibition) at 1uM": "%"}, "values": [
      {"smiles": "CC(=O)OCC(=O)[C@H]1CC[C@H]2[C@@H]3CCC4=CC(=O)CC[C@]4(C)[C@H]3CC[C@]12C", "hERG current change (%, negative = inhibition) at 1uM": 5.41},
      {"smiles": "COc1cccc(C(=O)NNC(=S)NC2CCCCC2)c1", "hERG current change (%, negative = inhibition) at 1uM": 12.7},
      {"smiles": "COc1cc(CN2CCCN(C)CC2)cc([N+](=O)[O-])c1O", "hERG current change (%, negative = inhibition) at 1uM": 12.8},
      {"smiles": "CC(C)c1ccc(OCC(=O)N2CCN(C(=O)c3ccco3)CC2)cc1", "hERG current change (%, negative = inhibition) at 1uM": -9.83},
      {"smiles": "CCOC(=O)C1=C(C(F)(F)F)Nc2ncnn2C1c1cc(OC)c(OC)cc1OC", "note": "(centres unmarked)", "hERG current change (%, negative = inhibition) at 1uM": 12.8},
      {"smiles": "COC(=O)C1CN(C(=O)COc2ccc(Cl)cc2Cl)c2ccccc2O1", "note": "(centres unmarked)", "hERG current change (%, negative = inhibition) at 1uM": 15.1},
      {"smiles": "O=C1C(C=Nc2ccc(F)cc2)=C(O)c2ccccc21", "hERG current change (%, negative = inhibition) at 1uM": 12.2},
      {"smiles": "Cc1nnc(SCC(=O)Nc2ccc(Br)cn2)[nH]c1=O", "hERG current change (%, negative = inhibition) at 1uM": 13.7},
      {"smiles": "CSc1nc(Sc2cccc(Cl)c2)c2ccccc2n1", "hERG current change (%, negative = inhibition) at 1uM": 14},
      {"smiles": "O=C(CCCC1=NS(=O)(=O)c2ccccc2N1)N1CCN(c2ccc([N+](=O)[O-])cc2)CC1", "hERG current change (%, negative = inhibition) at 1uM": 12.6},
      {"smiles": "O=C(Oc1coc(CSc2nnc(NC(=O)C3CC3)s2)cc1=O)c1c(F)cccc1F", "hERG current change (%, negative = inhibition) at 1uM": 9.18},
      {"smiles": "COc1ccc(OC)c(S(=O)(=O)Nc2cccc(-c3ccc(N4CCCCCC4)nn3)c2)c1", "hERG current change (%, negative = inhibition) at 1uM": 13.1},
      {"smiles": "O=C(NC(Cc1c[nH]c2ccccc12)C(=O)O)/C(=C/c1ccco1)NC(=O)c1ccccc1", "note": "(centres unmarked)", "hERG current change (%, negative = inhibition) at 1uM": 5.59},
      {"smiles": "COCCn1c(SCC(=O)NCc2ccccc2)nnc1-c1ccco1", "hERG current change (%, negative = inhibition) at 1uM": 9.33},
      {"smiles": "COc1ccccc1NC(=O)C(=O)NCCC1CCCCN1S(=O)(=O)c1ccc(F)cc1", "note": "(centres unmarked)", "hERG current change (%, negative = inhibition) at 1uM": 12.8},
      {"smiles": "O=C(COC(=O)Cn1cnc2ccccc21)Nc1cccc([N+](=O)[O-])c1", "hERG current change (%, negative = inhibition) at 1uM": 13.4},
      {"smiles": "CCOC(=O)C1=C(C)N=c2s/c(=C\\c3ccncc3)c(=O)n2C1c1ccc2c(c1)OCO2", "note": "(centres unmarked)", "hERG current change (%, negative = inhibition) at 1uM": 10.4},
      {"smiles": "CC(=O)Nc1ccc2nc(NC(=O)CN3CCOCC3)sc2c1", "hERG current change (%, negative = inhibition) at 1uM": 22.1},
      {"smiles": "CCCc1nn2c(=O)c(C(c3ccc(C)cc3)c3c(O)nc4sc(CCC)nn4c3=O)c(O)nc2s1", "hERG current change (%, negative = inhibition) at 1uM": 10.5},
      {"smiles": "Brc1ccc(C2=CC(c3cccs3)n3ncnc3N2)cc1", "note": "(centres unmarked)", "hERG current change (%, negative = inhibition) at 1uM": 1.55},
      {"smiles": "Cc1ccc(C(=O)N2CCN(CCNC(=O)C(=O)NCc3ccc(Cl)cc3)CC2)cc1", "hERG current change (%, negative = inhibition) at 1uM": -48.8},
      {"smiles": "COc1cc(S(=O)(=O)NCc2cccnc2)ccc1F", "hERG current change (%, negative = inhibition) at 1uM": -7.26},
      {"smiles": "O=C(O)c1ccc(-n2cccc2/C=C2/SC(=O)N(CC(=O)N3CCCC3)C2=O)cc1", "hERG current change (%, negative = inhibition) at 1uM": 14.3},
      {"smiles": "COc1ccc(N2C(=O)NC(=O)/C(=C\\c3cn(C)c4ccccc34)C2=O)cc1", "hERG current change (%, negative = inhibition) at 1uM": 13.7},
      {"smiles": "O=C(NCCCn1ccnc1)/C(=C\\c1cccnc1)NC(=O)c1ccco1", "hERG current change (%, negative = inhibition) at 1uM": 2.54},
      {"smiles": "CC(NC(=O)c1ccc2c(=O)n3c(nc2c1)CCC3)c1ccc(S(N)(=O)=O)cc1", "note": "(centres unmarked)", "hERG current change (%, negative = inhibition) at 1uM": 5.09},
      {"smiles": "O=[N+]([O-])c1ccc2nc(SCc3cn4ccccc4n3)[nH]c2c1", "hERG current change (%, negative = inhibition) at 1uM": -0.991},
      {"smiles": "O=C(Nc1ccccc1)C1=C[C@H](c2ccccc2)C[C@H](OCc2ccc(CO)cc2)O1", "hERG current change (%, negative = inhibition) at 1uM": 9.55},
      {"smiles": "Cn1cncc1C(=O)c1ccccc1", "hERG current change (%, negative = inhibition) at 1uM": 5.68},
      {"smiles": "CCc1ccccc1NC(=O)Cn1nnc(C(=O)NCc2cccc(OC)c2)c1N", "hERG current change (%, negative = inhibition) at 1uM": -1.35},
      {"smiles": "COCc1nnc(NC(=O)c2ccc(NC(C)=O)cc2)s1", "hERG current change (%, negative = inhibition) at 1uM": 11.9},
      {"smiles": "O=C1CN(C(=O)COC(=O)c2ccccc2NC(=O)c2ccco2)c2ccccc2N1", "hERG current change (%, negative = inhibition) at 1uM": 5.59},
      {"smiles": "COc1ccccc1CN1CC(C(=O)N(C)CCOc2ccccc2)CCC1=O", "note": "(centres unmarked)", "hERG current change (%, negative = inhibition) at 1uM": 4.75},
      {"smiles": "C=CCSc1nc(Oc2ccccc2)c2sccc2n1", "hERG current change (%, negative = inhibition) at 1uM": 5.44},
      {"smiles": "CN(/N=C/c1cccs1)c1cc(=O)n(C)c(=O)[nH]1", "hERG current change (%, negative = inhibition) at 1uM": 8.29},
      {"smiles": "O=C(NC(=S)Nc1ccccc1N1CCOCC1)c1ccc(-c2cccc(Cl)c2)o1", "hERG current change (%, negative = inhibition) at 1uM": 8.88},
      {"smiles": "CC1=CCC(C(=O)O)(C(=O)N/N=C/c2cccnc2)C(c2ccccc2)C1", "note": "(centres unmarked)", "hERG current change (%, negative = inhibition) at 1uM": 6.97},
      {"smiles": "CC(Sc1nnc(-c2ccccc2F)n1N)C(=O)NCC1CCCO1", "note": "(centres unmarked)", "hERG current change (%, negative = inhibition) at 1uM": 9.3},
      {"smiles": "COc1cccc(NC(=O)Nc2nnc(Cc3ccccc3)s2)c1", "hERG current change (%, negative = inhibition) at 1uM": 15.7},
      {"smiles": "Cc1cccc(C(=O)NCC2CCCO2)c1", "note": "(centres unmarked)", "hERG current change (%, negative = inhibition) at 1uM": 15.4},
      {"smiles": "CC(C)CNC(=S)NC1CC2CCCC(C1)N2Cc1ccco1", "note": "(centres unmarked)", "hERG current change (%, negative = inhibition) at 1uM": -9.18},
      {"smiles": "CCOC(=O)c1c(-c2ccc(F)cc2)csc1/N=C/N(C)C", "hERG current change (%, negative = inhibition) at 1uM": 4.81},
      {"smiles": "O=C(NC1CC1)C1=C[C@@H](c2ccc(C(F)(F)F)cc2)C[C@@H](OCc2ccc(CO)cc2)O1", "hERG current change (%, negative = inhibition) at 1uM": -10.6},
      {"smiles": "CC(C)Oc1ccc(/C=N/NC(=O)c2nnn(-c3nonc3N)c2CN(C)C2CCCCC2)cc1", "hERG current change (%, negative = inhibition) at 1uM": 1.25},
      {"smiles": "N#Cc1c(C(F)(F)F)cc(-c2ccc(Cl)cc2)[nH]c1=O", "hERG current change (%, negative = inhibition) at 1uM": 21.8},
      {"smiles": "Cn1c(N)c(C(=O)NCc2ccccc2)sc1=S", "hERG current change (%, negative = inhibition) at 1uM": -0.462},
      {"smiles": "CC(C)CC(NC(=O)C1CCCCC1)C(=O)NCc1ccccn1", "note": "(centres unmarked)", "hERG current change (%, negative = inhibition) at 1uM": 17.1},
      {"smiles": "CC(=O)NC1CC2CCCC(C1)N2CC(=O)Nc1ccccc1", "note": "(centres unmarked)", "hERG current change (%, negative = inhibition) at 1uM": 12.7},
      {"smiles": "O=C(NCC1COc2ccccc2O1)c1cccc(S(=O)(=O)N2CCOCC2)c1", "note": "(centres unmarked)", "hERG current change (%, negative = inhibition) at 1uM": -10.6},
      {"smiles": "CCOc1ccc(CNc2nnnn2C)cc1", "hERG current change (%, negative = inhibition) at 1uM": 15.1},
      {"smiles": "O=[N+]([O-])c1ccc(/C=N/NC(=S)Nc2ccc(Cl)cc2Cl)s1", "hERG current change (%, negative = inhibition) at 1uM": 12.2},
      {"smiles": "CCOC(=O)C1CCN(Cc2oc(CO)cc(=O)c2O)CC1", "hERG current change (%, negative = inhibition) at 1uM": 3.56},
      {"smiles": "CCn1c(-c2csc(-c3ccccc3)n2)n[nH]c1=S", "hERG current change (%, negative = inhibition) at 1uM": 9.82},
      {"smiles": "CCOC(=O)N1CCN(C(=O)c2n[nH]c(=O)c3ccccc23)CC1", "hERG current change (%, negative = inhibition) at 1uM": 10.7},
      {"smiles": "CCCCCNC(=O)c1cccnc1SCC(=O)Nc1ccccc1OC", "hERG current change (%, negative = inhibition) at 1uM": -19.8},
      {"smiles": "O=C(Nc1ccc(Oc2nnc(-c3ccccc3)c3ccccc23)cc1)c1ccccc1", "hERG current change (%, negative = inhibition) at 1uM": 6}
    ]}
  ]
}
